# The campaign covered roughly 320,000 compounds. About 200 (0.062%) were called active. The shares of active, inactive and inconclusive entries below differ from those in the screen. Calls follow the shape of the dose curve; as a rule, active = well fitted activation curve with a large enough effect; inconclusive = small, poorly fitted or top-dose-only effect; inactive = no such curve, though single readings can be large or run the other way. Potencies of inconclusive entries are left out as doubtful fits.
# Assay: qHTS assay for re-activators of p53 using a Luc reporter; also: nearly all actives have a fitted effect of over 45% in size
# Conditions: H1299 p53-A138V BP100-luciferase reporter, luminescence, 24 h; series mostly up to 92.2 µM
# Summary of the method: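 p53-null H1299 cells stably carrying temperature-sensitive p53-A138V and a BP100-luciferase reporter were pinned with compounds (4-point, 1:5 series) and held 24 hrs at 37 deg C. Luminescence was read 10 min after detection reagent.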
# Potency is read from the fitted curve at half-maximal effect; tags tell the direction and shape of the fitted curve.
row,SMILES,Potency
1,COc1ccccc1NC(=O)c1ccc2c(c1)OCO2,"inconclusive [activator, partial curve, poor fit]"
2,Cc1ccc2nc(N(CCCN(C)C)C(=O)c3ccc4ncsc4c3)sc2c1,"inconclusive [activator, partial curve, poor fit]"
3,CC(=O)c1cccc(NC(=O)Cn2nc(-c3ccc(Cl)cc3)ccc2=O)c1,inactive
4,O=C(O)c1ccc(N/N=C/c2cn(Cc3ccccc3F)c3ccccc23)cc1,"inconclusive [activator, full curve, poor fit]"
5,Cc1ccc2nc(-c3cccc(S(=O)(=O)N(C)C)c3)cn2c1,"inconclusive [activator, partial curve, poor fit]"
6,Fc1cccc(/C=N/Nc2nc3ccccc3[nH]2)c1,inactive
7,CC1CCN(CC(O)Cn2c3ccccc3c3ccccc32)CC1 (stereo unspecified),"inconclusive [activator, full curve, poor fit]"
8,O=C1c2cccc3cccc(c23)C(=O)N1c1ccncc1,inactive
9,O=C(Nc1ccc(Cl)cc1)Nc1ccc2c(c1)OCO2,"inconclusive [activator, partial curve, poor fit]"
10,Oc1cc(-c2ccc(N3CCCCC3)nc2)cc2cccnc12,"inconclusive [activator, full curve, poor fit]"
11,N#CC(c1ccccc1O)N1N=C(c2ccccc2)CC1c1ccccc1 (stereo unspecified),"inconclusive [activator, partial curve]"
12,COc1ccc(C(=O)N=c2sc3c(C)ccc(OC)c3n2C)cc1,"inconclusive [activator, partial curve, poor fit]"
13,Cc1nnc(Oc2ccccc2F)c2ccccc12,"inconclusive [activator, partial curve, poor fit]"
14,Clc1ccc(-c2cc3ccccc3[nH]2)cc1,"inconclusive [activator, full curve, poor fit]"
15,O=C(COc1ccc(/C=N/NS(=O)(=O)c2ccccc2)cc1)N1CCOCC1,inactive
16,Cc1cccc(NC(=O)C(C)Sc2nnc(-c3cccnc3)o2)c1 (stereo unspecified),"inconclusive [activator, single point]"
17,O=C(N/N=C/c1ccccc1)c1cc[n+]([O-])cc1,inactive
18,Cc1cccc(-c2noc(CCCC(=O)NC3CCCC3)n2)c1,inactive
19,Cc1ccc(CN2CCC(c3cc(-c4cccs4)n[nH]3)CC2)cc1,"inconclusive [activator, single point]"
20,c1ccc(-c2n[nH]c(-c3ccccn3)n2)nc1,"inconclusive [activator, full curve, poor fit]"
21,CCN(CC)c1ccc(/C=N/N=C(c2ccccc2)c2ccccc2)c(O)c1,inactive
22,CCc1cccc(NC(=O)CCc2c(C)nn(-c3ccc(N4CCOCC4)nn3)c2C)c1,inactive
23,CCC(C)c1c(O)nc(SCC(=O)c2ccccc2)[nH]c1=O (stereo unspecified),"inconclusive [activator, partial curve, poor fit]"

row,SMILES,Potency
1,COc1ccc(-c2cc(C(=O)N3CCCC3)c3ccccc3n2)cc1OC,inactive
2,CNC(=O)c1sc(-c2ccccc2)nc1C,inactive
3,Cc1cccc(-c2noc(Cc3ccc(Cl)cc3)n2)c1,"inconclusive [activator, partial curve, poor fit]"
4,N/C(=N\OC(=O)/C=C/c1ccccc1)c1ccccc1,"inconclusive [activator, partial curve]"
5,Cc1cccc(Cn2c(C(C)O)nc3ccccc32)c1 (stereo unspecified),"inconclusive [activator, partial curve, poor fit]"
6,O=C(N/N=C/c1cn(-c2ccccc2)nc1-c1cc2ccccc2o1)c1ccncc1,"inconclusive [activator, partial curve, poor fit]"
7,O=C(O)c1cc(-c2ccc3c(c2)OCO3)nc2ccc(Br)cc12,inactive
8,Cc1ccc(NC(=O)c2sc3nc(C)cc(C)c3c2N)cc1,"inconclusive [activator, full curve, poor fit]"
9,Cc1cc(/C=N\NC(=O)COc2cccc3cccnc23)c(C)n1-c1ccc(Br)cc1,inactive
10,O=C(Cc1ccccc1)c1nc2ccccc2s1,"inconclusive [activator, partial curve, poor fit]"
11,COc1ccc(C(=O)NCC2CCCO2)cc1 (stereo unspecified),"inconclusive [activator, full curve]"
12,O=C(CSc1nnc(-c2ccc(O)cc2)o1)Nc1cccc(O)c1,"inconclusive [activator, full curve, poor fit]"
13,Nc1cccc2cc(-c3ccccc3)oc12,"inconclusive [activator, partial curve, poor fit]"
14,CC(C)COc1ccc(C(=O)OC2CC(C)(C)OCC2CN(C)C)cc1 (stereo unspecified),inactive
15,COc1ccc2c(c1)C=CC1(O2)N(CCO)c2ccccc2C1(C)C (stereo unspecified),"inconclusive [activator, partial curve, poor fit]"
16,Cc1cccc(NC(=O)c2cc(C)nc3ccccc23)c1,inactive
17,CC(C)C(=O)Nc1nc(-c2ccc([N+](=O)[O-])cc2)cs1,"inconclusive [activator, single point]"
18,Cc1ccc2cc(CN(Cc3ccco3)C(=O)NCc3ccccc3)c(=O)[nH]c2c1C,inactive
19,COc1ccc(C(=O)Nc2cnc(NC(=O)c3cccs3)cc2C)cc1,inactive
20,O=C(O)c1cccc(N/N=C/c2cn(-c3ccccc3)nc2-c2cccs2)c1,inactive
21,CCNC(=S)Nc1nc2c(cc1C(=O)OCC)CCCC2,"inconclusive [activator, partial curve, poor fit]"
22,C=CCOc1ccc(C(=O)n2cc(C(=O)OC)c3ccccc32)cc1,"inconclusive [activator, single point]"
23,O=[N+]([O-])c1cccc2ccc(/C=C/c3cccc(Br)c3)nc12,"inconclusive [activator, full curve, poor fit]"

# Reference: PubChem BioAssay AID504706 (National Center for Advancing Translational Sciences (NCATS), 2011)
